# In the RNAGym collection of RNA variant scans (doi:10.1073/pnas.2313332121):
# This sample is rich in variants without activity.
# B1: TPR 5TU (parent)
# chain: GGAUCUUCUCGAUCUAACAAAAAAGACAAAUCUGCCACAAAGCUUGAGAGCAUCUUCGGAUGCAGAGGCGGCAGCCUUCGGUGGCGCGAUAGCGCCAACGUUCUCAACUAUGACACGCAAAACGCGUGCUCCGUUGAAUGGAGUUUAUCAUG
# Variants of: B1
# Assay: polymerase ribozyme fitness, log enrichment relative to wild type (log ratio); higher = more active; in vitro selection for triplet polymerase activity
# Procedure, shortened: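 A single round of triplicate in vitro selection, including frozen incubation at −7 °C, was applied to PCR-built, transcribed mutant libraries of each subunit of a heterodimeric triplet polymerase ribozyme. Illumina sequencing of input and output libraries retained genotypes with ≥10 input reads and ≥1 read per output. Fitness is the base-2 logarithm of genotype enrichment divided by wild-type enrichment, from inverse-variance-weighted replicate averages.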
row,Variant,polymerase ribozyme fitness (log ratio)
1,A23G A37U U135G G136U,≤ -4.2
2,A23U A28U C38U U45A A64C C85G,≤ -4.2
3,A23U A37U A40G U55A C57A G83A C118G G133A U151G,≤ -4.2
4,A23U C76U G94C C125U,≤ -4.2
5,A23G U82G G83C C95U G100A,≤ -4.2
6,A23G A29G C69A U90C A142U,≤ -4.2
7,A23G C51U U55G G83U G92U,≤ -4.2
8,A22U C51G C69U C79U A91U G100A A115G U148A U151C,≤ -4.2
9,A23G C57A G88A G124C,≤ -4.2
10,A23C U45C A52C U55A C75G C76U C93A A119G G143U,-4.17
11,A23G C75U G86C A110U G133C U135C,≤ -4.2
12,A22U A52G U55A U78A C85U C87U C103A G126C U144C,≤ -4.2
13,A23U A28C A39G A49C U53A G124C,≤ -4.2
14,A23C G46A G86U C99G A110G,≤ -4.2
15,A23U A47U G81C C99G A107U G140A,≤ -4.2
16,A22U G50C U53G G88C C93U C96U C108U,≤ -4.2
17,A23U C75A U111C U148C,≤ -4.2
18,A23G U44A G88A,-4.1
19,A23G A26G U55G U77G G92A C95U A98G C103G C116A C125A,≤ -4.2
20,A23C C57U C85U G86A C125A U144G,≤ -4.2
21,A23G U61G A97U A150C U151C,≤ -4.2
22,A23U C57A C76A A91G C99G U127G U135G,≤ -4.2
23,A23C C96U C129A U130G U139A,≤ -4.2
24,A23C G48A G67C U135C,≤ -4.2

row,Variant,polymerase ribozyme fitness (log ratio)
1,A22U C85G C96G G133U,≤ -4.2
2,A23G A24G A30G G42A G81A C85A U90A A113U C118A,≤ -4.2
3,A23C A52U C76A C85G G88U C116G,≤ -4.2
4,A22U C96U A121U U139A,-4.03
5,A22U A40G U61G G65C U104G C116G G143C,≤ -4.2
6,A23U G46U G67U C96G U146G U151A,≤ -4.2
7,A23G A64U G136U A150G,≤ -4.2
8,A23U A26U U53A G74C G83A,≤ -4.2
9,A23G A40G U61A C131G G141A,≤ -4.2
10,A22U G94U G141A G143C,≤ -4.2
11,A23U A29U C35U G42C G48A G71U C93U G141U G143C,≤ -4.2
12,A23C A91U C103G,≤ -4.2
13,A22U A47G U56C G92C C105U,-3.13
14,A23G A37G C93U U135G,≤ -4.2
15,A23U A30C U55A C85G A98U G126U G136A,≤ -4.2
16,A23G A47C A113G U135G,≤ -4.2
17,A23C A41U G59C C75U U101A,≤ -4.2
18,A23C A29G G81A G84U A122G G126A U135A,≤ -4.2
19,A23C C35A A73G A106G C149U,≤ -4.2
20,A23G U33C A37G G58C U61A G68C C95U U130C,≤ -4.2
21,A23G A29G C93U C103G,≤ -4.2
22,A23C A26C A60U U134G,≤ -4.2
23,A23C A73G G86A U109A,≤ -4.2
24,A23C C51A U55A C87A C99G A115U U144C,≤ -4.2

row,Variant,polymerase ribozyme fitness (log ratio)
1,A23U A28C C54A C75G A91G A110C,≤ -4.2
2,A23U C96U U127C U144G A150G,≤ -4.2
3,A23U C32U C43U C57A A60C G67A G92C C105A A113C,≤ -4.2
4,A23C C35A U55C A73G C96U C116U A121U U148C,≤ -4.2
5,A23U A41C C43U G67A C76A C96G U146A,≤ -4.2
6,A23U A29G G42A A98U U102A U145G,≤ -4.2
7,A23U G50A C95U A137G,≤ -4.2
8,A22U A150C,-2.85
9,A22U U45A A47C G58A G65U G68A C95U A150U,≤ -4.2
10,A22U G50U,1.37
11,A23G G83U C87A C96U A122C,≤ -4.2
12,A23C C87U C93U C95G C96G,≤ -4.2
13,A23G A39U U55G U56C C69A C87A A138G,≤ -4.2
14,A23G U56A G92C,≤ -4.2
15,A23G A37G U44G G74C U77A U146A A150G,≤ -4.2
16,A23G A24G G42U U78C C95U C114A G124A C149A,≤ -4.2
17,A23C C54A C87U G143C,≤ -4.2
18,A22U U55A G94A A98U U135A,-2.29
19,A22U G86A G92U,-1.74
20,A23C U33G A91G C103G G141A,≤ -4.2
21,A23C A91G A119U A121C A150C,≤ -4.2
22,A23C C51U G58A C75U C85G G143A U145G,≤ -4.2
23,A23C C35A G68U C96A A106G G133C,≤ -4.2
24,A23G A30U G50U U53A C85U U101G C108A U144A,≤ -4.2

row,Variant,polymerase ribozyme fitness (log ratio)
1,A23U A40U G83A C123U A147U,≤ -4.2
2,A22U A47U G58U G92C A150C,≤ -4.2
3,A23C C43U C76G C96G,≤ -4.2
4,A22U A106G,1.21
5,A23G U33A C57U G62A A73U G81A G88C A120C G143A,≤ -4.2
6,A22U C85G U104C C108A G143U,≤ -4.2
7,A23U C51G A60G C95U C118G,≤ -4.2
8,A22U C32U U55G U56C C75A G88U C105U A142U,≤ -4.2
9,A23G U31A C85U U151C,≤ -4.2
10,A23C C43A U55A U56A G70A G88C U102G G141A,≤ -4.2
11,A22U A41C C63U A107U,≤ -4.2
12,A22U G46A,0.387
13,A23C A28C G48U C63G G80C U101G C131U,≤ -4.2
14,A23G A26U A28U C38U A49C,≤ -4.2
15,A22U C35U G48U G80A C87G C103U A138G U148G,≤ -4.2
16,A23C G67A A73U C96U G140C,≤ -4.2
17,A23U A39U G50U C51U C54G C57U A64G,≤ -4.2
18,A23U A40U U90A C118A U139G,≤ -4.2
19,A23U A26C G42A A91U G152A,≤ -4.2
20,A23G U33C U53A C96U,≤ -4.2
21,A23C A24G G48C A107G,≤ -4.2
22,A23C U44G A47U A91U A122U,≤ -4.2
23,A22U C99G C116U,-0.689
24,A23G A66C C85G,≤ -4.2

row,Variant,polymerase ribozyme fitness (log ratio)
1,A23C C38U C93A A142C,≤ -4.2
2,A23C A64G G70C,≤ -4.2
3,A22U C32A C35A G92C C108G C118U U144A,≤ -4.2
4,A23C C54U G59U G92C U104C C118U,≤ -4.2
5,A22U U33G C87G A106G,≤ -4.2
6,A23C G152U,≤ -4.2
7,A23U A29G G84U,≤ -4.2
8,A23G A40C G141C,-3.82
9,A23C A29G A39U U55A G86U,≤ -4.2
10,A22U A64C U77A C116U C131G,≤ -4.2
11,A22U C57A G68U G84C C99A A142C,≤ -4.2
12,A22U C27A G34A C54A G65U A91U C93U C105U,≤ -4.2
13,A22U U44A C54G A106G,≤ -4.2
14,A23C A37C U56C G84U C131U,≤ -4.2
15,A23G U61A G92C A121G A142G,≤ -4.2
16,A23C U45A G84A A142C A150U,≤ -4.2
17,A23C C35A A73C A91G A98G A121U,≤ -4.2
18,A22U G67U A120U G133U A142C,≤ -4.2
19,A22U C35A A40C C93U,≤ -4.2
20,A23U G42A C85A C95U A147U,≤ -4.2
21,A22U C87G C116G,≤ -4.2
22,A22U G141C,1.14
23,A22U C35U G42A A60U A89U C149U,≤ -4.2
24,A23U A37G C69U U139A,≤ -4.2

row,Variant,polymerase ribozyme fitness (log ratio)
1,A22U A39C U61A C72U C85G G141A,≤ -4.2
2,A23C C57U C76U A89U C93U,≤ -4.2
3,A23C A41G A47U A52G U82A C85A C118G,≤ -4.2
4,A23C A37C U53A A64C U90C C96G U101G G126A,≤ -4.2
5,A23C C51A C79A,≤ -4.2
6,A23U A49C G50U C95U,≤ -4.2
7,A22U A73G U82A,1.72
8,A22U C99U U101G A115U U151G,≤ -4.2
9,A23G A40G U53G A89C C95A,≤ -4.2
10,A23G A41C C43A U45A A49G U55G C96A C108G,≤ -4.2
11,A22U G92U U102A A122U U127G U134G,≤ -4.2
12,A23U A40C G58U A60C C76A G83A C105U G141C U146G,≤ -4.2
13,A22U C57G C93G U151G,≤ -4.2
14,A22U G34U A106U U144A,≤ -4.2
15,A23U A29U,-3.88
16,A23U A29G,≤ -4.2
17,A23C C76A C93A C149G,≤ -4.2
18,A22U C76G C79U G81C A91U C118A U148C,≤ -4.2
19,A23C G68U C116G A137C,≤ -4.2
20,A22U G25C G48C A122U,≤ -4.2
21,A23C A39U G46U U90A C96A C99U C114G G141C,≤ -4.2
22,A23U C75G C93U,≤ -4.2
23,A23G U33C C54A C96U U101A A107G,≤ -4.2
24,A23U C51U G58C,≤ -4.2

row,Variant,polymerase ribozyme fitness (log ratio)
1,A23G U45A C63U G83A G92U G94A A142C,≤ -4.2
2,A22U A39U C96A C118G A122C C149A,≤ -4.2
3,A23G A26U G94C A110C,≤ -4.2
4,A22U A39U G50A C96A C108G C116U A120U,≤ -4.2
5,A23C A49C A52C C87G G94U A122G C125A U151C,≤ -4.2
6,A23C A40U A91G G94A,≤ -4.2
7,A23G A24G A29C C76A C93G G94U G126U U146G,≤ -4.2
8,A22U A49C C57U C85A A137C G140U U145G,≤ -4.2
9,A23C A47C G59A G68A C85A C96U U148A,≤ -4.2
10,A23U C38U G48U C87U,≤ -4.2
11,A23G G34C U55G G67U C95U A115U G133A,≤ -4.2
12,A23U A41C C103A,≤ -4.2
13,A23C C87A U139G,≤ -4.2
14,A23G A26U G84U,≤ -4.2
15,A23U C54U G88U,≤ -4.2
16,A23U G42C G88C C105G C116G,≤ -4.2
17,A23U G46A C51U C103A,≤ -4.2
18,A23G C57U G70U C87G,≤ -4.2
19,A23C G25U U53G G94A G117C A137C,≤ -4.2
20,A23G A39C C87A C116U,≤ -4.2
21,A23U A73G U77C G83C G112C,≤ -4.2
22,A22U A37U G50C U56A A66G A147U G152U,≤ -4.2
23,A23C A52G G84C G86A A107U G128C,≤ -4.2
